Experimental data: PubChem BioAssay AID1460 (National Center for Advancing Translational Sciences (NCATS), 2008)
Hit rate of the full screen: of about 270,000 compounds, about 5,800 (2.1%) were called active. Inconclusive results, whose numbers are uncertain, are shown with a selection of clear calls. The call rests on the fitted dose curve; in most records, active means well fitted inhibition curve with a large enough effect; inconclusive means small, poorly fitted or top-dose-only effect; inactive means flat fitted curve, though single readings scatter. Potencies of inconclusive entries are doubtful fits and often do not repeat.

Target: Microtubule-associated protein tau (Homo sapiens) (UniProt P10636)
Experiment: qHTS for Inhibitors of Tau Fibril Formation, Thioflavin T Binding; further: nearly all actives have a fitted effect of over 55% in size
Settings: recombinant tau K18 P301L (four-repeat tau fragment), heparin-induced fibrillization, ThT fluorescence; series mostly up to 57.4 µM
Method in brief: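 Aggregation was driven by heparin (20 uM final) acting on recombinant tau […] bearing P301L in 100 mM sodium acetate pH 7; fibrils were detected with Thioflavin T.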
Potency means the concentration at half of the fitted maximal effect; tags describe the fitted curve by direction and shape.

Chain of UniProt P10636 (P10636 whole entry, looked up): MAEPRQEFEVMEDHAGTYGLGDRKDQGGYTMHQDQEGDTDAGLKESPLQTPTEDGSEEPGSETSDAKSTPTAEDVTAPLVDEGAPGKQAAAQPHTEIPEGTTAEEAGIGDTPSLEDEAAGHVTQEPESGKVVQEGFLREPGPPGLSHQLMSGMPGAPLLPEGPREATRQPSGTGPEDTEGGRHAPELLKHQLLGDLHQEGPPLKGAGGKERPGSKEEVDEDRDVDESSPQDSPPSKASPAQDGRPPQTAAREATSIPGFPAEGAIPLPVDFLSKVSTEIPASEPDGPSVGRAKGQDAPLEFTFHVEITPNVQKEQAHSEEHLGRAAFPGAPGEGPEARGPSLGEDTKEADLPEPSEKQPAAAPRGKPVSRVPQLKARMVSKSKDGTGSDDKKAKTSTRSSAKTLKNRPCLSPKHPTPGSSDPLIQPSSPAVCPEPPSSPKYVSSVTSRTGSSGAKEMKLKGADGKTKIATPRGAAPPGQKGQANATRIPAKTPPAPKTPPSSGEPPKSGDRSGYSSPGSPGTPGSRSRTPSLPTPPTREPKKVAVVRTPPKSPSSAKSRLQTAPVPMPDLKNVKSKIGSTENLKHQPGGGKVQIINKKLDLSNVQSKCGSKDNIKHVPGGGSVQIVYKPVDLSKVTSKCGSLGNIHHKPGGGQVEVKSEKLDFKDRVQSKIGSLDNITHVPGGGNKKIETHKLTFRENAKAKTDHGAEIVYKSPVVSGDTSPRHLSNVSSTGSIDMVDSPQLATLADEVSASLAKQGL

Structure (SMILES)	Potency
COC(=O)c1ccccc1NS(=O)(=O)c1ccc2c3c(cccc13)C(=O)N2	inconclusive: 25.1 µM [inhibitor, partial curve]
CCc1ccccc1NC(=O)CSCc1cnn(-c2ccccc2)c1-n1cccc1	inconclusive: 28.2 µM [inhibitor, partial curve, poor fit]
O=C(c1cccnc1)N(c1cc2sc(=O)oc2c2ccccc12)S(=O)(=O)c1ccccc1	active: 11.2 µM
Cc1ccc(N2C(=O)CC(Sc3nc4ccccc4o3)C2=O)cc1Cl (stereo not given)	inconclusive: 31.6 µM [inhibitor, single point]
Cc1ccccc1-c1nc2sc3c(c2c(=O)o1)CCC3	inconclusive: 12.6 µM [inhibitor, partial curve]
CN(C)c1ccc(N=Nc2ccccc2C(=O)OCC(=O)N2CCCC2)cc1	active: 12.6 µM
O=C1CCCC(O)=C1C=NCc1ccccc1	inactive
CCOC(=O)c1cnc2c(-c3ccccc3)cnn2c1C	inconclusive: 14.1 µM [inhibitor, partial curve]
O=C(CN1C(=O)S/C(=C\c2ccc(Cl)cc2)C1=O)NNC(=O)c1ccccc1O	inactive
CCC1(C)CC2(CCCN(CCC(=O)c3ccccc3)C2)CCO1 (stereo not given)	inconclusive: 39.8 µM [inhibitor, single point]
Cc1ccc2nc(NC(=O)COC(=O)c3ccco3)sc2c1	inconclusive: 17.8 µM [inhibitor, partial curve]
COc1cc(-c2nnc(SCCOc3ccc(Cl)cc3)o2)cc(OC)c1OC	inactive
COc1ccc(N2CCC(CNC(=S)Nc3cc(C)ccc3C)C2)cc1 (stereo not given)	inconclusive: 14.1 µM [inhibitor, partial curve]
CC(C)CCN(Cc1ccco1)C(=O)c1cc2c(s1)-c1ccccc1OC2	inactive
Cc1ccc(/C=C2\SC(=S)N(CCCC(=O)Nc3ccc(O)cc3)C2=O)cc1	inconclusive: 2.82 µM [inhibitor, full curve]
COc1ccc(CNC(=O)c2ccc(S(=O)(=O)N3CCCC3)cc2)cc1OC	inactive
Cc1ccc(Cn2nc3c(cc2=O)CCc2ccccc2-3)cc1	inconclusive: 20 µM [inhibitor, single point]
O=C(CCC(=O)OCC(=O)c1ccc(F)cc1)NC1CCCCC1	inactive
CCCc1[nH]nc2c1C(/C(C)=C/c1ccccc1)C(C#N)=C(N)O2 (stereo not given)	inconclusive: 17.8 µM [inhibitor, partial curve]
CCCn1nnnc1SCC(=O)Nc1cccc(NC(=O)c2ccco2)c1	inconclusive: 15.8 µM [inhibitor, partial curve]
